# The RNAGym collection of RNA variant scans (doi:10.1101/gad.245936.114)
# Variants at the background level are over-represented here.
# B1: tRNA (parent)
# chain: CUCUCGGUAGCCAAGUUGGUUUAAGGCGCAAGACUUUAAUUUAUCACUACGAAAUCUUGAGAUCGGGCGUUCGACUCGCCCCCGGGAGAUUUUUUCCUCGAGCAA
# Variants of: B1
# Assay: nonsense suppression (GFP-seq) (ratio to wild type); higher = more function; SUP4oc tRNA, yeast GFP reporter sort-seq
# Summary of the method: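 Raffinose/galactose medium with 80 mg/L adenine was used to grow yeast carrying genome-integrated tRNA variants (~3% random-mutation library), RFP, and a galactose-driven GFP ochre reporter. Cells went into GFP/RFP bins, which were Illumina-sequenced, and variants with ≥100 reads and ≥30 cells were scored. Nonsense suppression (GFPSEQ) is the per-bin median GFP/RFP weighted by estimated cell share and expressed relative to the unmutated parent tRNA.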
row,Variant,nonsense suppression
1,C11U A30G G69A,≤ 0.026
2,C11U A31C,≤ 0.026
3,C11U A31C A33G G73C,≤ 0.026
4,C11U A31C U63C C82A G88A,≤ 0.026
5,C11U A33U U57A G66A C77G,≤ 0.026
6,C11U A54U G59A G67U A74C,≤ 0.026
7,C11U A60C A87U,≤ 0.026
8,C11U C12A,≤ 0.026
9,C11U C12G A89G,≤ 0.026
10,C11U C12U,≤ 0.026
11,C11U C12U G15U G18A U55C G65C,≤ 0.026
12,C11U C27U,≤ 0.026
13,C11U C27U C29A A31U,≤ 0.026
14,C11U C56A G67A A74G,≤ 0.026
15,C11U C64A,≤ 0.026
16,C11U C64G C72U C79A G88A,≤ 0.026
17,C11U C68G,≤ 0.026
18,C11U C72G,≤ 0.026
19,C11U C75A,0.168
20,C11U C77A A87U,≤ 0.026
21,C11U C82G,≤ 0.026

row,Variant,nonsense suppression
1,C11U C83A G86C,≤ 0.026
2,C11U G15C G61U,≤ 0.026
3,C11U G15U A87C,≤ 0.026
4,C11U G18C G86U,≤ 0.026
5,C11U G18C U22G U57A,≤ 0.026
6,C11U G18U A62U,≤ 0.026
7,C11U G18U G25A,≤ 0.026
8,C11U G18U U58G,≤ 0.026
9,C11U G19A G25A C29U G59A,≤ 0.026
10,C11U G19A G28U U57C,≤ 0.026
11,C11U G19U C64A,≤ 0.026
12,C11U G19U G26C C34A G65A,≤ 0.026
13,C11U G25A U35C U76G,≤ 0.026
14,C11U G25C A74G,≤ 0.026
15,C11U G25C C80G,≤ 0.026
16,C11U G26A A31U G61U,≤ 0.026
17,C11U G26A C29U A62C,≤ 0.026
18,C11U G26U U71G,≤ 0.026
19,C11U G28A U55A U58A U70A,≤ 0.026
20,C11U G32A G84U,≤ 0.026
21,C11U G32U U55A U57G,≤ 0.026

row,Variant,nonsense suppression
1,C11U G59C,≤ 0.026
2,C11U G59C G85C,≤ 0.026
3,C11U G61A G69U,≤ 0.026
4,C11U G61C,0.0829
5,C11U G61U A89G,≤ 0.026
6,C11U G66A,≤ 0.026
7,C11U G67C,≤ 0.026
8,C11U G69A,≤ 0.026
9,C11U G69U U71C U76C,≤ 0.026
10,C11U G84A,≤ 0.026
11,C11U G84C,≤ 0.026
12,C11U G85U,≤ 0.026
13,C11U G85U A87C,≤ 0.026
14,C11U U16A A54U,≤ 0.026
15,C11U U16A C77U,≤ 0.026
16,C11U U16A U63C U70G C72G U76C,≤ 0.026
17,C11U U16C,≤ 0.026
18,C11U U16C A89C,≤ 0.026
19,C11U U16G G28U G69C,≤ 0.026
20,C11U U17A,≤ 0.026
21,C11U U17A C27U A31C G66U,≤ 0.026

row,Variant,nonsense suppression
1,C11U U17C A24U C27G U76A,≤ 0.026
2,C11U U17C C29G G32U G59A,≤ 0.026
3,C11U U17G G88C,≤ 0.026
4,C11U U20A C82G,≤ 0.026
5,C11U U20G A33C C34G C56U U58G,≤ 0.026
6,C11U U20G A33C C34G C56U U58G C82G,≤ 0.026
7,C11U U21A,≤ 0.026
8,C11U U21A A30U,≤ 0.026
9,C11U U21A G65U,≤ 0.026
10,C11U U21C G61A A87U,≤ 0.026
11,C11U U21C U55A U63C C75G,≤ 0.026
12,C11U U35G U55G U76A C82G,≤ 0.026
13,C11U U55A C81A,≤ 0.026
14,C11U U55G U57C C75U,≤ 0.026
15,C11U U57G,≤ 0.026
16,C11U U57G G59A,≤ 0.026
17,C11U U57G U76A G85U A87G,≤ 0.026
18,C11U U63A,≤ 0.026
19,C11U U63C U76C C80G C82G,≤ 0.026
20,C11U U70G C79A,≤ 0.026
